Laboratory results published in the supplement of paper PMC8728848.
The other results are listed elsewhere or left out.

Columns and labels:
Test in all cases: glycan array binding signal (z-score within array); higher = stronger binding
Details in all cases: glycan notation: IUPAC condensed, linker removed
[1] = target: Fuc(a1-2)Gal(b1-4)GlcNAc(b1-3)Gal(b1-4)GlcNAc(b1-3)Gal(b1-4)GlcNAc
Procedure, shortened: (§1)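 From the Consortium for Functional Glycomics database, 3228 arrays were curated, keeping only those whose protein sequence was available. Binding is given as a within-array Z-score averaged across arrays sharing a protein sequence and across linkers. Negative Z-scores can be read as non-binding.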

[2] = target: Fuc(a1-2)Gal(b1-4)GlcNAc(b1-3)GalNAc
Procedure, shortened: as §1

[3] = target: Fuc(a1-2)Gal(b1-4)GlcNAc(b1-3)[Fuc(a1-2)Gal(b1-4)GlcNAc(b1-6)]GalNAc
Procedure, shortened: as §1

[4] = target: Fuc(a1-2)Gal(b1-4)GlcNAc(b1-3)[Fuc(a1-3)[Gal(b1-4)]GlcNAc(b1-6)]Gal(b1-4)Glc
Procedure, shortened: as §1

[5] = target: Fuc(a1-2)Gal(b1-4)GlcNAc(b1-6)GalNAc
Procedure, shortened: as §1

[6] = target: Fuc(a1-2)Gal(b1-4)GlcNAc6S
Procedure, shortened: as §1

[7] = target: Fuc(a1-2)Gal(b1-4)[Fuc(a1-3)]GlcNAc
Procedure, shortened: as §1

[8] = target: Fuc(a1-2)Gal(b1-4)[Fuc(a1-3)]GlcNAc(b1-2)Man(a1-3)[Fuc(a1-2)Gal(b1-4)[Fuc(a1-3)]GlcNAc(b1-2)Man(a1-6)]Man(b1-4)GlcNAc(b1-4)[Fuc(a1-6)]GlcNAc
Procedure, shortened: as §1

[9] = target: Fuc(a1-2)Gal(b1-4)[Fuc(a1-3)]GlcNAc(b1-2)[Fuc(a1-2)Gal(b1-4)[Fuc(a1-3)]GlcNAc(b1-4)]Man(a1-3)[Fuc(a1-2)Gal(b1-4)[Fuc(a1-3)]GlcNAc(b1-2)Man(a1-6)]Man(b1-4)GlcNAc(b1-4)GlcNAc
Procedure, shortened: as §1

[10] = target: Fuc(a1-2)Gal(b1-4)[Fuc(a1-3)]GlcNAc(b1-3)Gal(b1-4)[Fuc(a1-3)]GlcNAc
Procedure, shortened: as §1

[11] = target: Fuc(a1-2)Gal(b1-4)[Fuc(a1-3)]GlcNAc(b1-3)Gal(b1-4)[Fuc(a1-3)]GlcNAc(b1-3)Gal(b1-4)[Fuc(a1-3)]GlcNAc
Procedure, shortened: as §1

[12] = target: Fuc(a1-2)Gal(b1-4)[Fuc(a1-3)]GlcNAc(b1-3)GalNAc
Procedure, shortened: as §1

[13] = target: Fuc(a1-2)Gal(b1-4)[Fuc(a1-3)]GlcNAc(b1-3)[Neu5Ac(a2-6)Gal(b1-4)GlcNAc(b1-6)]Gal(b1-4)Glc
Procedure, shortened: as §1

[14] = target: Fuc(a1-2)Gal3S(b1-4)GlcNAc
Procedure, shortened: as §1

[15] = target: Fuc(a1-2)Gal6S(b1-3)GlcNAc
Procedure, shortened: as §1

[16] = target: Fuc(a1-2)Gal6S(b1-3)GlcNAc6S
Procedure, shortened: as §1

Fuc(a1-2)Gal6S(b1-4)Glc = target: Fuc(a1-2)Gal6S(b1-4)Glc
Procedure, shortened: as §1

[17] = target: Fuc(a1-2)Gal6S(b1-4)Glc6S
Procedure, shortened: as §1

Fuc(a1-2)[Gal(a1-3)]Gal = target: Fuc(a1-2)[Gal(a1-3)]Gal
Procedure, shortened: as §1

[18] = target: Fuc(a1-2)[Gal(a1-3)]Gal(b1-3)GalNAc
Procedure, shortened: as §1

[19] = target: Fuc(a1-2)[Gal(a1-3)]Gal(b1-3)GalNAc(b1-3)Gal(a1-4)Gal(b1-4)Glc
Procedure, shortened: as §1

[20] = target: Fuc(a1-2)[Gal(a1-3)]Gal(b1-3)GlcNAc
Procedure, shortened: as §1

[21] = target: Fuc(a1-2)[Gal(a1-3)]Gal(b1-3)GlcNAc(b1-2)Man(a1-3)[Fuc(a1-2)[Gal(a1-3)]Gal(b1-3)GlcNAc(b1-2)Man(a1-6)]Man(b1-4)GlcNAc(b1-4)GlcNAc
Procedure, shortened: as §1

[22] = target: Fuc(a1-2)[Gal(a1-3)]Gal(b1-3)GlcNAc(b1-2)Man(a1-3)[Fuc(a1-2)[Gal(a1-3)]Gal(b1-3)GlcNAc(b1-2)Man(a1-6)]Man(b1-4)GlcNAc(b1-4)[Fuc(a1-6)]GlcNAc
Procedure, shortened: as §1

[23] = target: Fuc(a1-2)[Gal(a1-3)]Gal(b1-3)GlcNAc(b1-3)GalNAc
Procedure, shortened: as §1

[24] = target: Fuc(a1-2)[Gal(a1-3)]Gal(b1-3)GlcNAc(b1-6)GalNAc
Procedure, shortened: as §1

[25] = target: Fuc(a1-2)[Gal(a1-3)]Gal(b1-4)Glc
Procedure, shortened: as §1

[26] = target: Fuc(a1-2)[Gal(a1-3)]Gal(b1-4)GlcNAc
Procedure, shortened: as §1

[27] = target: Fuc(a1-2)[Gal(a1-3)]Gal(b1-4)GlcNAc(b1-2)Man
Procedure, shortened: as §1

[28] = target: Fuc(a1-2)[Gal(a1-3)]Gal(b1-4)GlcNAc(b1-2)Man(a1-3)[Fuc(a1-2)[Gal(a1-3)]Gal(b1-4)GlcNAc(b1-2)Man(a1-6)]Man(b1-4)GlcNAc(b1-4)GlcNAc
Procedure, shortened: as §1

[29] = target: Fuc(a1-2)[Gal(a1-3)]Gal(b1-4)GlcNAc(b1-2)Man(a1-3)[Fuc(a1-2)[Gal(a1-3)]Gal(b1-4)GlcNAc(b1-2)Man(a1-6)]Man(b1-4)GlcNAc(b1-4)[Fuc(a1-6)]GlcNAc
Procedure, shortened: as §1

[30] = target: Fuc(a1-2)[Gal(a1-3)]Gal(b1-4)GlcNAc(b1-3)GalNAc
Procedure, shortened: as §1

[31] = target: Fuc(a1-2)[Gal(a1-3)]Gal(b1-4)GlcNAc(b1-3)[Fuc(a1-2)[Gal(a1-3)]Gal(b1-4)GlcNAc(b1-6)]GalNAc
Procedure, shortened: as §1

[32] = target: Fuc(a1-2)[Gal(a1-3)]Gal(b1-4)GlcNAc(b1-6)GalNAc
Procedure, shortened: as §1

[33] = target: Fuc(a1-2)[Gal(a1-3)]Gal(b1-4)[Fuc(a1-3)]Glc
Procedure, shortened: as §1

[34] = target: Fuc(a1-2)[Gal(a1-3)]Gal(b1-4)[Fuc(a1-3)]GlcNAc
Procedure, shortened: as §1

[35] = target: Fuc(a1-2)[Gal(a1-3)]Gal(b1-4)[Fuc(a1-3)]GlcNAc(b1-3)GalNAc
Procedure, shortened: as §1

[36] = target: Fuc(a1-2)[Gal(a1-4)]Gal(b1-4)GlcNAc
Procedure, shortened: as §1

[37] = target: Fuc(a1-2)[GalNAc(a1-3)]Gal
Procedure, shortened: as §1

[38] = target: Fuc(a1-2)[GalNAc(a1-3)]Gal(b1-3)GalNAc(a1-3)[Fuc(a1-2)]Gal(b1-4)GlcNAc
Procedure, shortened: as §1

[39] = target: Fuc(a1-2)[GalNAc(a1-3)]Gal(b1-3)GalNAc(b1-3)Gal(a1-4)Gal(b1-4)Glc
Procedure, shortened: as §1

[40] = target: Fuc(a1-2)[GalNAc(a1-3)]Gal(b1-3)GlcNAc
Procedure, shortened: as §1

[41] = target: Fuc(a1-2)[GalNAc(a1-3)]Gal(b1-3)GlcNAc(b1-2)Man(a1-3)[Fuc(a1-2)[GalNAc(a1-3)]Gal(b1-3)GlcNAc(b1-2)Man(a1-6)]Man(b1-4)GlcNAc(b1-4)GlcNAc
Procedure, shortened: as §1

[42] = target: Fuc(a1-2)[GalNAc(a1-3)]Gal(b1-3)GlcNAc(b1-2)Man(a1-3)[Fuc(a1-2)[GalNAc(a1-3)]Gal(b1-3)GlcNAc(b1-2)Man(a1-6)]Man(b1-4)GlcNAc(b1-4)[Fuc(a1-6)]GlcNAc
Procedure, shortened: as §1

[43] = target: Fuc(a1-2)[GalNAc(a1-3)]Gal(b1-3)GlcNAc(b1-3)GalNAc
Procedure, shortened: as §1

B1: PX9961X-pdi-531-24-531 (Parabacteroides distasonis) (protein)
chain: DLTEEIHSSVIAENYYNNAGEVMAAMMRPWGHFCGTMQVAQSPWSCNELSSDCAAWPQKGRHGYDNGDWIRLHRHQWIPTDGQVVDAWKKLFEGIGYANNFLTDTENIDFEALQVPMSKAQAQAEMRVYRAYCYWYVMDMFGTAPICEKIGEINPSSKSRAELFAWIEKELNESIPSLSESKTETYGRVSKWGAYALLARLYLNAEIYTGQARWDDCIAACDELAKGGFALDKKWNDTFRADNDKRSTEIIWSIVYDEVYAKGMGWYQRWLHYAHQTGWDLQSGPWNGLVTQPTFYDSFADNDLRKIEGFLIGKQYPRKVDENGNYYYDTTAEPLKGSEEYNGQDLVFVNYIKSMTEGEENSGARSIKYEIQPGTTGDMNNDWVMFRYSEVIYNKAEALMRKNGGKATQEVVDMINSVRQRSFKAEDWEKAKYTTATLTMDEFLAEKGREFAFEGIRRTDLVRFNKFVTTSWWDKTASNEPKRNIFPIPQRQLDANANLSPNEANSLF
[1]
  glycan array binding signal (z-score): 0.206
[2]
  glycan array binding signal (z-score): -0.684
[3]
  glycan array binding signal (z-score): -0.351
[4]
  glycan array binding signal (z-score): -0.218
[5]
  glycan array binding signal (z-score): 0.242
[6]
  glycan array binding signal (z-score): 0.154
[7]
  glycan array binding signal (z-score): -0.404
[8]
  glycan array binding signal (z-score): -0.289
[9]
  glycan array binding signal (z-score): 1.03
[10]
  glycan array binding signal (z-score): -0.915
[11]
  glycan array binding signal (z-score): 0.059
[12]
  glycan array binding signal (z-score): 0.289
[13]
  glycan array binding signal (z-score): -0.307
[14]
  glycan array binding signal (z-score): -0.039
[15]
  glycan array binding signal (z-score): -0.189
[16]
  glycan array binding signal (z-score): -0.069
Fuc(a1-2)Gal6S(b1-4)Glc
  glycan array binding signal (z-score): -0.727
[17]
  glycan array binding signal (z-score): -0.335
Fuc(a1-2)[Gal(a1-3)]Gal
  glycan array binding signal (z-score): -0.491
[18]
  glycan array binding signal (z-score): -0.203
[19]
  glycan array binding signal (z-score): -0.567
[20]
  glycan array binding signal (z-score): -0.17
[21]
  glycan array binding signal (z-score): 1.15
[22]
  glycan array binding signal (z-score): 1.56
[23]
  glycan array binding signal (z-score): 0.024
[24]
  glycan array binding signal (z-score): 0.385
[25]
  glycan array binding signal (z-score): 0.973
[26]
  glycan array binding signal (z-score): -0.931
[27]
  glycan array binding signal (z-score): -0.156
[28]
  glycan array binding signal (z-score): 0.429
[29]
  glycan array binding signal (z-score): 0.103
[30]
  glycan array binding signal (z-score): -0.696
[31]
  glycan array binding signal (z-score): -0.301
[32]
  glycan array binding signal (z-score): -0.139
[33]
  glycan array binding signal (z-score): -0.222
[34]
  glycan array binding signal (z-score): 0.052
[35]
  glycan array binding signal (z-score): -0.149
[36]
  glycan array binding signal (z-score): -0.264
[37]
  glycan array binding signal (z-score): -0.122
[38]
  glycan array binding signal (z-score): -0.668
[39]
  glycan array binding signal (z-score): -0.13
[40]
  glycan array binding signal (z-score): -0.763
[41]
  glycan array binding signal (z-score): 0.821
[42]
  glycan array binding signal (z-score): -0.159
[43]
  glycan array binding signal (z-score): 0.099
